Structures are written as SMILES. Screen size: about 50,000 compounds; about 800 (1.6%) showed an effect of 50% or more. The list shows a part of the results.

This passage reports displacement results from PubChem BioAssay AID1240 (Sanford-Burnham Center for Chemical Genomics, 2008).

The experiment concerns the target Bcl-2-like protein 10 (Homo sapiens) (UniProt Q9HD36). Briefly: Phenotype converters, Bcl-B/TR3 peptide binding displacement, primary biochemical FP (AID 1240).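 Also: 0% = Bcl-B with tracer peptide and DMSO and 100% = tracer peptide lacking Bcl-B.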 As to conditions: GST-Bcl-B / FITC-TR3 peptide fluorescence polarization; stronger effect = higher value; compound at 3.75 mg/L. A general note: In fluorescence polarisation assays a small probe gives low polarisation when free and higher when bound to something large.
UniProt Q9HD36, sequence (Q9HD36 whole entry, looked up): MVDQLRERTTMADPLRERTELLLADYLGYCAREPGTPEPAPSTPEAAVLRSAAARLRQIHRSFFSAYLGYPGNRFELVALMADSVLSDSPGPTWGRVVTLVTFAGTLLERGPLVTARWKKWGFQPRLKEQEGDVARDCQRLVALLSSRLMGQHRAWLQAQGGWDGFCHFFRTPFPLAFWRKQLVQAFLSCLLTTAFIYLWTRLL
As for `Cc1cc(=O)oc2cc(OCc3ccccc3)c(O)cc12`, the displacement was 12.9%.

With `COC(=O)C1=C(C)N(CCc2ccc(OC)c(OC)c2)C(=O)/C1=C\c1ccc(O)cc1`, the displacement was 7.1%. Then `CC(C1CC1)N(Cc1ccccc1)C(=O)Nc1ccccc1Cl` (centres undefined), with -3.9%; and `Cc1ccc(N2C(=O)CC(C(C)c3ccccc3)C2=O)c(Br)c1` (centres undefined), with 4.1%; and `COc1ccc2c(c1OC)C(=O)N(c1ccc(I)cc1)C2`, with -11.8%. Consider `O=S1(=O)CCC(NC(=S)N/N=C/c2ccc(-c3ccc(Cl)cc3Cl)o2)C1` (centres undefined), for which the displacement amounted to 14.1%. As for `CCCCCCCSc1n[nH]c(=O)[nH]c1=S`, the displacement was determined as 8.5%. Then `COc1ccc(C2CC(c3ccc(F)cc3)=NN2c2ccccc2)cc1OC` (centres undefined), with 64.4%; and `COc1ccc(/C(C)=N/NC(=O)c2cc(C34CC5CC(CC(C5)C3)C4)[nH]n2)cc1`, with -1.3%. The figure for `O=C(/C=C/c1ccco1)NC(=S)NCc1ccccc1` is 11.6%. The figure for `CCCC(C)NS(=O)(=O)c1ccccc1` (centres undefined) is -12.3%. `COc1ccc(Br)cc1/C=C/C(=O)Nc1ccc(N2CCCCC2)cc1`: the displacement was -0.7%. The figure for `Cc1ccc(N2C(=O)NC(=O)/C(=C\c3cccs3)C2=O)cc1C` is -5.2%; for `CC(C)COc1ccc(C(=O)NCC2(c3ccccc3)CCCC2)cc1` it is -18.7%.

For the molecule `Brc1ccccc1-c1nc2ccccc2[nH]1`, the displacement worked out at 4.1%. The figure for `CCC(C)NC(=O)c1c(-c2ccccc2Cl)noc1C` (centres undefined) is -2.2%. With `COc1ccc(C(=O)NCCSc2ccc(C)cc2)cc1OC`, the displacement was found to be 0.5%. Then `COc1ccccc1N1C(=O)CC(N2CCN(c3ccccn3)CC2)C1=O` (centres undefined), with -26.1%; and `CCN(CC)COc1ccc2occ(C(=O)c3cc(OC)ccc3OC)c2c1`, with 6.7%. In the case of `Cn1c(O)c(C=NCC2CCCO2)c(=O)n(C)c1=O` (centres undefined), the displacement was -3.5%. The figure for `N#Cc1ccc(-c2ccccc2)[nH]c1=S` is -5.4%; for `O=C(O)C1C2C=CC3(CN(Cc4ccccc4)C(=O)C13)O2` (centres undefined) it is 4.4%. Turning to `CC(=O)C(=Nc1ccc(C)cc1C)NNc1cc(C(N)=O)c(Cl)cc1Cl`, the displacement turned out to be 3.9%. The figure for `COc1ccc(-n2cnc(/N=C/N(C)C)c2C(=O)c2cccc([N+](=O)[O-])c2)cc1` is -6.1%; for `NS(=O)(=O)c1cccc(NC(=O)COc2ccccc2[N+](=O)[O-])c1` it is 6.5%. Then `Cc1[nH]c2ccccc2c1/C=N/NC(=O)c1ccc(O)cc1O`, with -1.7%; and `Cc1cc(NC(=O)c2ccc(Oc3ccc([N+](=O)[O-])cc3)cc2)no1`, with 6%. The figure for `Cc1ccc(C2CC(C(F)(F)F)n3nc(C(=O)Nc4ccc(F)cc4F)cc3N2)cc1` (centres undefined) is 0.7%.

For the molecule `COC(=O)c1ccccc1NC(=O)CSC(N)=O`, the displacement amounted to 3.5%. The figure for `O=C(N/N=C/c1ccc(Br)s1)Nc1ccccc1` is 2.2%; for `Cc1cc(OCC(=O)Nc2cccc(I)c2)cc(C)c1Cl` it is -0.6%. For the molecule `COc1ccc(N2C(=O)c3ccc(C(=O)Nc4cccc(O)c4)cc3C2=O)cc1`, the displacement is -2%.

On to `COc1cc(NC(=O)c2cnn3c2NC(c2ccco2)CC3C(F)(F)F)c(OC)cc1Cl` (centres undefined), for which the displacement was 7.7%.

For `Cc1cccc(N2C(=O)CC(n3c(C)nc4ccccc43)C2=O)c1` (centres undefined), the displacement was 11.7%. As for `Cc1ccc(CCC(=O)Nc2ncc(Cc3ccc(Cl)cc3Cl)s2)o1`, the displacement is 13.8%.

As to `CCOC(=O)C(CCCCOc1ccccc1F)C(=O)OCC`, the displacement was -4%. The figure for `O=C(CCc1ccccc1)Oc1ccc(Cl)cc1` is -7.7%; for `COc1cc(C(=O)n2nc(C)c(Sc3ccccc3[N+](=O)[O-])c2C)cc(OC)c1OC` it is -13.2%.

As to `COc1ccc(C2=C/C(=C/c3ccc(Cl)cc3)C(=O)O2)cc1OC`, the displacement stood at 105%.

For `Cc1cccc(NC(=O)COc2ccc3ccccc3c2)c1C`, the displacement was 6.1%. For the molecule `CC(C)c1cccc(C(C)C)c1NC(=O)COc1cccc(Br)c1`, the displacement turned out to be 12.8%.

For the molecule `COC(=O)c1cc(NC(=O)CCCOc2ccc(Cl)cc2C)cc(C(=O)OC)c1`, the displacement was -4.8%.

Consider `Cc1ccc([N+](=O)[O-])cc1NC(=O)C1C2C3CCC(C3)C12` (centres undefined), for which the displacement turned out to be 11.6%. The figure for `CCOC(=O)C(CCOCCOc1c(C)cc(C)cc1C)C(=O)OCC` is -7.7%; for `CS(=O)(=O)N(Cc1ccccc1)c1ccccc1C(=O)N[C@H]1C[C@@H]2CC[C@H]1C2` it is 15%; for `COc1cc(C2/C(=C(\O)c3ccccc3)C(=O)C(=O)N2CCN(C)C)ccc1O` (centres undefined) it is -2.5%. With `COc1ccc(C2/C(=C(/O)c3ccccc3)C(=O)C(=O)N2c2cccc(Br)c2)cc1OC` (centres undefined), the displacement was -8.8%. For `O=C(CCNc1ccc(F)cc1)c1cccc([N+](=O)[O-])c1`, the displacement stood at 11.2%.

As to `O=C(COc1ccc(Cl)cc1Cl)NCCCOCC(=O)Oc1ccc(Cl)cc1Cl`, the displacement was -6.7%. The figure for `Cc1cc(Br)ccc1OCC(=O)O/N=C(\N)c1ccccn1` is 11.1%. The figure for `COc1cc(/C=N/Nc2nc(N3CCOCC3)nc(N3CCOCC3)n2)ccc1OC(=O)c1ccco1` is 8.3%. The figure for `COc1ccc(S(=O)(=O)CCc2nc3ccccc3o2)cc1` is -1.6%. Turning to `CN(C)CCCNCCCc1ccc(C(C)(C)C)cc1`, the displacement was -2.2%. The figure for `COc1ccc(N(CC(=O)NC(C)c2ccccc2)S(C)(=O)=O)c(OC)c1` (centres undefined) is 6.6%; for `O=C1C=C/C(=N\S(=O)(=O)c2cc(Cl)ccc2Cl)C=C1Cl` it is 21.8%. The figure for `COc1cc(/C=N\NC(=O)c2cccc3ccccc23)ccc1O` is 8.8%; for `O=C1c2ccccc2C(=O)N1CC(O)Cn1c2ccc(Cl)cc2c2cc(Cl)ccc21` (centres undefined) it is 5.3%; for `CCOC(=O)C1=C(C)NC2=C(C(=O)CCC2)C1c1ccccc1[N+](=O)[O-]` (centres undefined) it is 19.4%. As to `CC(/C=C/c1ccccc1)=N\N=C1\NC(=O)C(Cc2ccccc2)S1` (centres undefined), the displacement is -23.5%.

With `O=C(COc1ccc2ccccc2c1)N1CCN(c2ccc([N+](=O)[O-])cc2)CC1`, the displacement is -5.3%.

As to `CC(Oc1ccccc1)C(=O)Nc1ccc(Cl)c([N+](=O)[O-])c1` (centres undefined), the displacement came to 5.6%. Take `COc1ccc(-n2nc3cc(C)c(NC(=O)COc4ccccc4C)cc3n2)cc1`: the displacement is 0.2%. Turning to `O=C(O)c1ccccc1-c1ccccc1C(=O)Nc1ccccc1-c1ccccc1`, the displacement is -9.6%. For `CCC1(C(=O)OCC(=O)c2ccc(Br)cc2)CCCCC1`, the displacement turned out to be 6.6%.

On to `Cc1ccc2c(c1)-c1c(ssc1=S)C(C)(C)N2C(=O)C(C)N1C(=O)c2ccccc2C1=O` (centres undefined), for which the displacement worked out at 0.1%. Then `CC1S/C(=N/N=C/c2ccc(Cl)cc2)NC1=O` (centres undefined), with 2.7%; and `O=C(O)c1ccccc1-c1ccccc1C(=O)N1CCCCC1`, with -13.7%. For the molecule `Cn1c(=O)c2c(ncn2CC(=O)Nc2ccc(OCc3ccccc3)cc2)n(C)c1=O`, the displacement was -6.6%. Consider `COc1ccc(OC)c(C2C(C(C)=O)=C(O)C(=O)N2c2nc3ccccc3s2)c1` (centres undefined), for which the displacement is -8.3%.
